The campaign covered roughly 410,000 compounds. About 5,000 (1.2%) were called active. Inconclusive results, whose numbers are uncertain, are shown with a selection of clear calls. Calls come from the whole dose curve; as a rule, active = well fitted inhibition curve with a large enough effect; inconclusive = small, poorly fitted or top-dose-only effect; inactive = no such curve, though single readings can be large or run the other way. Potencies of inconclusive entries are doubtful fits and often do not repeat.
Assay: qHTS for Inhibitors of TGF-b; note: nearly all actives have a fitted effect of over 65% in size
Conditions: HepG2 CAGA-GFP TGF-b/SMAD3 reporter, GFP fluorescence, 18 h, TGF-beta stimulated, 500 pg/mL final; series mostly up to 46.1 µM; activity, negative = inhibition: at the top concentration
Method in brief: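 Read-out: total well GFP (ex488/em500-530) summed from mean per-cell fluorescence. Cells: HEPG2 CAGA-GFP, 1% FBS DMEM, 18 h at 37 degrees C with 500 pg/mL final TGF-beta. Unstimulated wells served as the full-inhibition control; stimulated DMSO wells = 0%.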
With CC(C)(C)c1ccc(C(O)c2ncc(-c3ccccc3)[nH]2)cc1 (centres undefined) the “activity, negative = inhibition” value was inactive: -11.1%. For BrC(/C=C\c1ccccc1)=N/Nc1nc(N2CCOCC2)nc(N2CCOCC2)n1, the Potency was inconclusive: 35.5 µM [inhibitor, single point]. With CCC(=O)NC(c1cccs1)c1cc(Cl)c2cccnc2c1O (centres undefined) the Potency was inconclusive: 3.16 µM [inhibitor, single point]. In the case of CC(C)NC(=O)CSCc1cccc(Br)c1, the Potency is reported as inconclusive: 1.78 µM [inhibitor, partial curve, poor fit]. For Cn1c(=O)c(C(=O)NCCO)c(O)c2ccccc21, the “activity, negative = inhibition” value was inactive: -1.17%. For CCCOc1ccc2ccccc2c1/C=N/n1c(C)nnc1-n1nc(C)cc1C, the Potency was inconclusive: 35.5 µM [inhibitor, single point]. With Cc1cc2nc(-c3ccccc3)c(Cc3ccccc3)n2c(C)c1Br the Potency was inconclusive: 17.8 µM [inhibitor, single point]. In the case of Cc1cccc(N2CCN(C(=O)CCn3c(=O)c4cccn4c4cccnc43)CC2C)c1 (centres undefined), the Potency is reported as inconclusive: 12.6 µM [inhibitor, partial curve]. For Cc1ccc(Cl)cc1N1CCN(S(=O)(=O)c2cc3c(cc2C)NC(=O)CO3)CC1, the Potency was inconclusive: 25.1 µM [inhibitor, partial curve, poor fit]. With Cn1c(N)c(S(=O)(=O)N2CCN(c3cccc(Cl)c3)CC2)c(=O)n(C)c1=O the “activity, negative = inhibition” value was inactive: 0.695%. For O=C(/C=C/c1ccc2c(c1)OCO2)c1ccccn1, the Potency was inconclusive: 22.4 µM [inhibitor, single point]. For CN(CCc1ccccc1)C(=O)c1cccc(NC(=O)Cc2cccc(NC(=O)C3CCN(C(=O)C4CCCC4)CC3)c2)c1, the Potency was inconclusive: 35.5 µM [inhibitor, single point]. For CN(CC(=O)N1CCN(Cc2ccccc2)CC1)C(=O)Cc1cccc2ccccc12, the Potency was active: 14.1 µM. With COc1ccc(CCNC(=O)C2CCCN(c3nc4ccccc4s3)C2)cc1OC (centres undefined) the “activity, negative = inhibition” value was inactive: 2.85%. For Cc1ccc(Cl)cc1N1CCN(Cc2nnc(-c3ccc4c(c3)OCO4)o2)CC1, the “activity, negative = inhibition” value was inactive: 0%. With Cc1cc(NC(=O)C2CCN(S(=O)(=O)c3ccc(Br)s3)CC2)ccc1Br the Potency was inconclusive: 1.78 µM [inhibitor, partial curve, poor fit]. In the case of Cc1ccc(C2CC2c2n[nH]c(=S)n2-c2cccc(C)c2)cc1 (centres undefined), the Potency is reported as inconclusive: 35.5 µM [inhibitor, single point]. In the case of O=C(NCCc1ccccc1)c1oc2ccccc2c1COc1ccccc1, the Potency is reported as inconclusive: 31.6 µM [inhibitor, single point]. In the case of CCN(CC)c1ccc(/C=N/Nc2nc(C)cc(=O)[nH]2)c(O)c1, the Potency is reported as inconclusive: 0.708 µM [inhibitor, full curve, poor fit].
% is set by controls: 0 for no effect and ±100 for the full control effect; potency is the fitted concentration of half-maximal effect; tags give direction and shape of the fitted curve.
